From PubChem BioAssay AID504339 (National Center for Advancing Translational Sciences (NCATS), 2011)
The whole screen tested about 390,000 compounds, of which about 17,000 (4.4%) were called active. This list was built around the results that the source calls inconclusive (neither active nor inactive); the mix of calls is not that of the screen. Calls follow the shape of the dose curve; as a rule, active = well fitted inhibition curve with a large enough effect; inconclusive = small, poorly fitted or top-dose-only effect; inactive = no such curve, though single readings can be large or run the other way. Potencies of inconclusive entries are doubtful fits and often do not repeat.

These molecules were tested against Lysine-specific demethylase 4A (Homo sapiens) (UniProt O75164) (assay: qHTS Assay for Inhibitors of JMJD2A-Tudor Domain). Conditions: AlphaScreen JMJD2A-Tudor / H3K4me3 peptide binding; series mostly up to 114 µM.
Also: nearly all actives have a fitted effect of over 50% in size.
Potency is read from the fitted curve at half-maximal effect; tags tell the direction and shape of the fitted curve.

Chain of UniProt O75164 (O75164 whole entry, looked up, the tested form may be a part): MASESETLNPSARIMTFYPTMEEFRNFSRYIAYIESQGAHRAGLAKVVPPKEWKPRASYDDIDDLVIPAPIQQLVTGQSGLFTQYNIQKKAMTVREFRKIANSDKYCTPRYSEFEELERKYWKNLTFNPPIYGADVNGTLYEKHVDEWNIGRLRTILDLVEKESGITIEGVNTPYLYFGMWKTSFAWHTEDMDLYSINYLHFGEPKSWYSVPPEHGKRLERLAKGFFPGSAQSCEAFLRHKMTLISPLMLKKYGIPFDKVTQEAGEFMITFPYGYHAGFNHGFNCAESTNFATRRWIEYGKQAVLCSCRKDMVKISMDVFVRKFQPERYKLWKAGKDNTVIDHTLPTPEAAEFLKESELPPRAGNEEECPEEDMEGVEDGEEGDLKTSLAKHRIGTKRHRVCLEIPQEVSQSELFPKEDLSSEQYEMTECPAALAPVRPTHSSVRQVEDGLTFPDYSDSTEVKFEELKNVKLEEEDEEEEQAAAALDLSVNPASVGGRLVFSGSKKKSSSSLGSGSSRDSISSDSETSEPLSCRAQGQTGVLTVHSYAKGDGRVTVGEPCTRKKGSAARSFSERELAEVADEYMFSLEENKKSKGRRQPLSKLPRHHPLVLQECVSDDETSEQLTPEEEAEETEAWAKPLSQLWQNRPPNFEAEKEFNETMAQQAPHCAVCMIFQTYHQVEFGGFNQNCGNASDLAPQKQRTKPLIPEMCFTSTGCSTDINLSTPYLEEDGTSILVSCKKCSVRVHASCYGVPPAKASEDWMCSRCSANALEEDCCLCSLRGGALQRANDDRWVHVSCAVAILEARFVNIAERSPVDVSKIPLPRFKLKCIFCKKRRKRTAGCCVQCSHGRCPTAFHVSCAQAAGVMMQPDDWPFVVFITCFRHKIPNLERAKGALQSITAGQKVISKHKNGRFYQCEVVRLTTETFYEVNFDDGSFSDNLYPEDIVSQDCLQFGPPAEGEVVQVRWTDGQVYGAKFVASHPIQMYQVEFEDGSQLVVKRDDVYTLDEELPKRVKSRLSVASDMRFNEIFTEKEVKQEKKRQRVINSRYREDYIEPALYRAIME

Potency, active:
CC(OC(=O)c1cc(=O)[nH]c2ccccc12)C(=O)N1C(C)CCCC1C (stereo unspecified) 17.8 µM
O=S1(=O)N=C(N/N=C/c2ccccn2)c2ccccc21 79.4 µM
CCCCCc1cc(=O)oc2c(C(CCN3CCCC3)c3ccc4c(c3)OCO4)c(OC)cc(OC)c12 (stereo unspecified) 50.1 µM
CCN1C(=O)c2cccc3cccc1c23 31.6 µM
CC(NCC(O)COc1ccc2ccccc2c1)c1ccccc1 (stereo unspecified) 0.794 µM
O=C(CSc1nc2ccsc2c(=O)n1CC1CCC(C(=O)O)CC1)c1ccc(Cl)cc1 (stereo unspecified) 79.4 µM
CCOc1ccc2nc(NC(=O)CSc3nc(-c4ccccc4)c(C#N)c(=O)[nH]3)sc2c1 50.1 µM
Fc1ccc2c(c1)C(c1ccc(N3CCOCC3)cc1)=NNC(c1cccs1)=N2 25.1 µM
Oc1ccccc1/C=N/n1cnn(Cc2ccccc2Cl)c1=S 17.8 µM

Potency, inactive:
O=CN1CCN(S(=O)(=O)c2ccc(S(=O)(=O)NC3CCCCC3)cc2)CC1
O=C(NCc1ccco1)c1cc(-c2cccs2)nc2ccccc12
Cc1ccc(S(=O)(=O)c2nc(N3CCOCC3)sc2Cl)cc1
COc1ccc(N2CCN(C(=O)COC(=O)CCc3ccccc3)CC2)cc1
COC(=O)c1c(Oc2ccc(OC)cc2)nnc(-c2ccccc2)c1-c1ccccc1
CC(=O)Nc1ccc(/C=N/NC(=O)c2cc(-c3ccco3)nc3ccccc23)cc1
O=c1oc2ccccc2c(O)c1/C=N/c1ncccn1
O=C(Nc1cc(Cl)cc(Cl)c1)c1ccc2c(c1)N(Cc1cccc(Cl)c1)C(=O)c1ccccc1S2=O (stereo unspecified)
CCC(=O)NCCCc1nc(-c2ccccc2)no1
N#Cc1nc(COc2ccccc2Cl)oc1N1CCCCCC1
CCOc1ccc(C(=O)NCCc2sc(-c3ccc(OC)c(OC)c3)nc2C)cc1
CCn1c(C(=O)NCc2ccc(OC(C)C)cc2)cc2oc3ccccc3c21
COc1cc(OC)cc(C(=O)NCC(=O)OC(C)C(=O)NC(C)C2CC3CCC2C3)c1 (stereo unspecified)
Cc1cccc(Cn2nc(C)n3c(cc4cc(C)ccc43)c2=O)c1
Cc1ccc(N(Cc2ccccc2)C(=O)c2cc(S(=O)(=O)N3CCOCC3)ccc2N2CCCC2)cc1
CN(C(=O)N1CCN(c2ccccn2)CC1)c1ccccc1
Cc1ccc(C)c(-n2c3nc(=O)[nH]c(=O)c-3cc3c(C)nn(-c4ccccc4)c32)c1
Cc1ccc(CNC(=O)CC(C)CC2=NS(=O)(=O)c3ccccc3N2)cc1 (stereo unspecified)
CCCc1[nH]nc2c1C(c1ccc(O)cc1OCC)C(C#N)=C(N)O2 (stereo unspecified)
Cc1cc(C)cc(NC(=O)c2ccc3c(c2)nnn3C2CCCC2)c1
CCOC(=O)c1cccc(NC(=O)c2cc3c(=O)n(C)c4ccccc4c3n2C)c1
Cc1nnc2ccc(N3CCCCC3)nn12
CCC(=O)C1=C(c2ccc(Cl)cc2)N(C(=O)CC)n2c(C)nnc2S1

Potency, inconclusive:
CS(=O)(=O)Nc1ccc(C(=O)NC2CCCC2)cc1 39.8 µM [inhibitor, single point]
Cc1ccc(NC(=O)CCC(=O)c2cccs2)nc1 56.2 µM [inhibitor, partial curve]
COc1ccc(S(=O)(=O)N(C)C[C@H]2Oc3ccc(NC(=O)Nc4ccc5c(c4)OCO5)cc3C(=O)N([C@H](C)CO)C[C@@H]2C)cc1 39.8 µM [inhibitor, partial curve]
Cc1cc(C)c2nc(N3CCC(C(=O)N4CCN(C(=O)c5ccco5)CC4)CC3)sc2c1 25.1 µM [inhibitor, partial curve]
CCOC(=O)C1=C(C)N(CCCCCC(=O)O)C(=O)NC1c1ccccc1OS(=O)(=O)c1ccc(C)cc1 (stereo unspecified) 70.8 µM [inhibitor, single point]
CCCCOc1ccc(C2=NC(c3cccs3)=Nc3ccc(CC)cc3N2)cc1 14.1 µM [inhibitor, full curve]
CC(C)CC(=O)Nc1nc2nc(-c3ccccc3)cc(=O)n2[nH]1 63.1 µM [inhibitor, partial curve, poor fit]
CCC(C)[C@H](N)c1cn([C@@H](Cc2cc3ccccc3[nH]2)C(=O)N2CCNCC2)nn1 (stereo partly specified) 79.4 µM [inhibitor, partial curve]
COc1ccccc1NS(=O)(=O)c1ccc(N/N=C(\C)C(C)C)c([N+](=O)[O-])c1 8.91 µM [inhibitor, partial curve]
COC(=O)c1c(NC(=O)Cn2cnc([N+](=O)[O-])n2)sc2c1CCC(C)C2 (stereo unspecified) 20 µM [inhibitor, partial curve]
Cc1ccc(S(=O)(=O)Nc2ccc(N3CCOCC3)cc2)cc1C 2.51 µM [inhibitor, full curve, poor fit]
CCN1CCN(c2nc3ccccc3nc2C(C#N)C(=O)OCc2ccccc2)CC1 (stereo unspecified) 56.2 µM [inhibitor, partial curve]
CC[N+](C)(CC)CCC/C(=N/O)C(O)(c1ccccc1)c1ccccc1 39.8 µM [inhibitor, single point]
CSc1ncc(CN2CCc3c([nH]c4ccccc34)C2c2cccc(O)c2)cn1 (stereo unspecified) 50.1 µM [inhibitor, partial curve]
O=S(=O)(c1ccccc1)N(F)S(=O)(=O)c1ccccc1 39.8 µM [inhibitor, partial curve]
CCOc1ccc(S(=O)(=O)Nc2cccc(C(=O)N3CCN(c4cccc(OC)c4)CC3)c2)cc1 31.6 µM [inhibitor, full curve]
CC1CCC(C(C)C)C(OC(=O)Cn2nnc3c(cnn3-c3ccccc3)c2=O)C1 (stereo unspecified) 35.5 µM [inhibitor, single point]
S=C(NCCc1ccccc1)N1CCn2cccc2C1c1cccnc1 (stereo unspecified) 50.1 µM [inhibitor, partial curve]
Cc1cccc2sc(NNC(=O)c3cc(=O)c4ccccc4o3)nc12 56.2 µM [inhibitor, partial curve]
COC(=O)c1cc(OC)c(OC)cc1NC(=S)N1CCN(C/C=C/c2ccccc2)CC1 28.2 µM [inhibitor, partial curve]
O=C(CSc1nnc(-c2ccccn2)n1Cc1ccco1)c1ccc(Cl)cc1 12.6 µM [inhibitor, full curve, poor fit]
COc1cc(/C=C2\SC(=Nc3ccccc3)NC2=O)cc(Cl)c1O 56.2 µM [inhibitor, single point]
O=C(CN1CCN(c2nc(-c3ccccc3)cs2)CC1)NCc1ccc2c(c1)OCO2 22.4 µM [inhibitor, full curve]
COc1cc(C)c(-c2cc(C(=O)O)c(C)o2)cc1C(C)C 79.4 µM [inhibitor, partial curve]
Cc1cc(C(F)(F)F)n2ncc(-c3ccccc3)c2n1 79.4 µM [inhibitor, partial curve]
CN(C)CCCNS(=O)(=O)c1ccc(NC2CCCCCC2)c([N+](=O)[O-])c1 35.5 µM [inhibitor, partial curve]
CC(C)NC(=O)c1onc(CSc2ccccc2F)c1C(=O)O 100 µM [inhibitor, single point]
COc1ccc(N2CCN(C(=O)c3ccc(Cl)c(S(=O)(=O)N4CCCC4)c3)CC2)cc1 35.5 µM [inhibitor, full curve, poor fit]
O=C(O)COc1ccccc1/C=C1\SC(=S)N(/N=C/c2ccccc2O)C1=O 44.7 µM [inhibitor, partial curve]
CC1CCCN(c2cc3c(cc2[N+](=O)[O-])C(=O)N(c2ccccc2)C3=O)C1 (stereo unspecified) 35.5 µM [inhibitor, partial curve]
CCOc1ccc(NC(=O)c2cccc3c2C(=O)N(CC2CCCO2)C3)cc1 (stereo unspecified) 31.6 µM [inhibitor, full curve, poor fit]
O=C(NNS(=O)(=O)c1ccc([N+](=O)[O-])cc1)c1ccccc1 35.5 µM [inhibitor, partial curve]
O=c1c2cc(N3CCOCC3)ccc2[nH]c(=S)n1CCCN1CCCCC1 89.1 µM [inhibitor, single point]
CCN(CC)c1ccc(/C=C2\CCC(/C=C(/C#N)C(=O)Nc3ccccc3F)=C2N2CCOCC2)cc1 35.5 µM [inhibitor, partial curve, poor fit]
COc1ccc(Cn2c(=S)[nH]c3cc(C(=O)N4CCCCC4)ccc3c2=O)cc1 31.6 µM [inhibitor, single point]
CC1CCN(S(=O)(=O)c2nnc(NC(=O)c3ccc(C(C)C)cc3)s2)CC1 7.08 µM [inhibitor, full curve]
COc1ccc(N2CCN(C(=O)CCc3ccccc3OC)CC2)cc1 56.2 µM [inhibitor, partial curve]
C/C(=N/NC(=O)CNC(=O)CCc1ccccc1)c1ccc(Cl)c(Cl)c1 2.82 µM [inhibitor, single point]
Cc1ccc(N/N=C2\CCS(=O)(=O)c3sccc32)cc1 25.1 µM [inhibitor, partial curve]
